Results from the supplement of paper PMC3334620.
Over roughly 33,000 sequences, “E-score (-0.5 to 0.5)” has its median near -0.054; the highest 2% begin near 0.35. This is one part of the list.

Molecular target: T1, Stb5 (UniProt P38699)
T1 sequence: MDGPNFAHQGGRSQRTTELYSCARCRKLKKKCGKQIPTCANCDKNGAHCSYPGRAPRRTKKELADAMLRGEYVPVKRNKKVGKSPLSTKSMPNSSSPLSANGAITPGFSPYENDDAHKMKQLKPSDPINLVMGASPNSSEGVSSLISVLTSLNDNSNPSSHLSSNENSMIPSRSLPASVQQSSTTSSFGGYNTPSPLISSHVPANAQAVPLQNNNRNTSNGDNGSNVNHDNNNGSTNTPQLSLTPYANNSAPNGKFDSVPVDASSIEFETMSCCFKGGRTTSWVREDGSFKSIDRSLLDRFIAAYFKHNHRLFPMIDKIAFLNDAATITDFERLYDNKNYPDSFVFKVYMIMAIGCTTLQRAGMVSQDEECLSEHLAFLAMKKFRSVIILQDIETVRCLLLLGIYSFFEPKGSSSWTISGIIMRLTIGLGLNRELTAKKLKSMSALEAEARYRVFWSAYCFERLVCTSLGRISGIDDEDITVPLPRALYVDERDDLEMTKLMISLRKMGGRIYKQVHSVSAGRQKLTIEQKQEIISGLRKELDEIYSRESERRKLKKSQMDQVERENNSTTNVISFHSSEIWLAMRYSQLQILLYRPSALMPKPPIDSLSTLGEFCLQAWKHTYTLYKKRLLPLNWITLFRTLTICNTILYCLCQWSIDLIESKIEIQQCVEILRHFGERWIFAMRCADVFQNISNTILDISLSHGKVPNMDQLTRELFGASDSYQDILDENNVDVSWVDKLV
Assay: PBM E-score (8-mer binding enrichment) (E-score (-0.5 to 0.5)); higher = stronger / more preferred TF binding; most listed sequences are background and not binding sites
Settings: protein concentration: 200 nM; construct: GST-full length
Experimental: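 Universal 'all 10-mer' protein binding microarrays (Agilent AMADID 015681) probed with GST-tagged S. cerevisiae TFs (full-length or DBD) made by in vitro transcription/translation (PURExpress), about 100-200 nM. Bound TF was detected with fluorescent anti-GST. Each ungapped 8-mer (which stands for itself and its reverse complement) is scored by the PBM enrichment score (E-score), a modified Wilcoxon-Mann-Whitney statistic from -0.5 to +0.5, computed with the Universal PBM Analysis Suite. Scale: above 0.35 generally sequence-specific binding.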

Sequence	PBM E-score
CAAGACGC	0.0349
ACGATCTC	-0.0682
ATATCGAA	0.0274
AAGAAAAC	0.0499
ATACGGAC	0.247
CTATGTCC	0.232
CCTGGTTC	-0.0702
AAGGTTCT	-0.142
CGCGAATA	0.0339
CAGACGTC	-0.0297
CAGAAATC	-0.12
ACCCACAG	-0.204
CGATTTTA	0.181
CCGTGAAC	0.0346
AGAAAATC	0.0227
AGATCGAT	-0.317
ACGATTTC	-0.0531
CAGCGGGA	0.264
ATCAAGTC	-0.0649
AGTCTCTG	-0.249
ACACACCG	0.372
ACTTTTGC	-0.163

Sequence	PBM E-score
GTACCTAC	-0.125
CTCACCGA	0.248
ACCTGTTA	-0.171
AGACTAGC	-0.395
CTAGCGTA	0.0784
AAGTTGCT	-0.227
CGCACTGA	0.0114
ACAGGACA	-0.0122
ACCCGCCG	0.318
GCTAAGGA	-0.245
TACGAATA	-0.152
CGACAGCG	0.254
ACACCCAA	-0.1
AGTATCGA	-0.0858
GGACACTA	0.0456
AGGCATTG	-0.0462
AATCGAGC	-0.152
CTGACGGA	0.198
ACACCAAG	-0.187
CCAAGGGA	-0.228
CCGCGTAC	0.129
AACTTCTG	-0.109

Sequence	PBM E-score
ACCGACGC	0.306
CCTTCACA	-0.239
CACGGCGA	0.162
GATGTATA	0.11
ACTACTCC	0.199
TCCTGGAA	-0.17
CCCACACC	-0.147
GGTGTTCA	0.231
AGGTGACC	-0.212
AGCAGCAT	-0.152
CGAGCTGA	-0.0653
CGACTGCC	-0.0292
ATTAAACG	-0.0501
GACCTTCA	-0.0115
ACAGCTCG	-0.163
CTAGTAAA	0.013
ACAGGCGA	-0.213
ACGAAAAC	-0.081
CTGGCTTC	-0.238
CTATCGTC	-0.135
ATCCCAAC	-0.19
CAAAACTG	0.0108

Sequence	PBM E-score
AAGCGGCT	0.169
AAAGTCGT	-0.217
TATGGGGA	-0.0774
AAGGACGT	-0.206
ACATGCCG	0.236
ATCATAGA	-0.0223
TAGCGCTA	0.252
ATCGGTAC	0.303
ATGTTGGC	0.0534
AAGTGACC	-0.109
CGAAGGCA	-0.121
CGCGTCAC	-0.194
CTCTTGGC	-0.232
CCTTTGAC	-0.15
GAAGCTGC	-0.103
CCAACTTA	-0.0503
ATTTCAGG	-0.101
GCCATTGA	0.0433
AAGACTAA	-0.0277
AATGTGAG	-0.126
